Laboratory results taken from the antibiotic and cytotoxicity screens of Wong et al. (2023).
Some of the results follow.

Assays:
HSkMC = human skeletal muscle cells; assay: cytotoxicity call (relative viability < 0.9); details: 10 µM
HepG2 = assay: cytotoxicity call (relative viability < 0.9); details: 10 µM
S. aureus RN4220 = assay: growth inhibition call (relative growth <= 0.2); details: 50 µM

With `C[C@H]1CN([C@@H](C)CO)C(=O)CCCn2nncc2CO[C@H]1CN(C)C(=O)Nc1cccc(C(F)(F)F)c1` the cytotoxicity call (HSkMC) was “inactive”, the cytotoxicity call (HepG2) was “inactive” and the growth inhibition call (S. aureus RN4220) was “active”.
In the case of `C[C@H]1CN([C@@H](C)CO)C(=O)c2cc(NS(=O)(=O)c3ccc(F)cc3)ccc2O[C@@H]1CN(C)S(=O)(=O)c1ccccc1`, the cytotoxicity call (HSkMC) was “inactive”, the cytotoxicity call (HepG2) was “inactive” and the growth inhibition call (S. aureus RN4220) was “inactive”.
With `C[C@@H]1CN([C@@H](C)CO)C(=O)c2cc(NC(=O)Nc3cccc4ccccc34)ccc2O[C@@H]1CN(C)Cc1ccc(Oc2ccccc2)cc1` the cytotoxicity call (HSkMC) was “active”, the cytotoxicity call (HepG2) was “active” and the growth inhibition call (S. aureus RN4220) was “inactive”.
`C[C@H](CO)N1C[C@H](C)[C@H](CN(C)C(=O)c2ccc3c(c2)OCO3)Oc2cc(-c3cncnc3)ccc2S1(=O)=O` was tested, and the cytotoxicity call (HSkMC) was “inactive”, the cytotoxicity call (HepG2) was “inactive” and the growth inhibition call (S. aureus RN4220) was “inactive”.
In the case of `N[C@@H](CSCC(=O)O)C(=O)O`, the cytotoxicity call (HSkMC) was “inactive”, the cytotoxicity call (HepG2) was “inactive” and the growth inhibition call (S. aureus RN4220) was “inactive”.
For `COc1ccc(S(=O)(=O)N(C)C[C@H]2Oc3ccc(NS(=O)(=O)c4ccc(F)cc4)cc3CC(=O)N([C@H](C)CO)C[C@H]2C)cc1`, the cytotoxicity call (HSkMC) was “inactive”, the cytotoxicity call (HepG2) was “inactive” and the growth inhibition call (S. aureus RN4220) was “inactive”.
`C[C@@H]1CN([C@@H](C)CO)C(=O)CCCn2nncc2CO[C@@H]1CN(C)C(=O)C1CC1` was tested, and the cytotoxicity call (HSkMC) was “inactive”, the cytotoxicity call (HepG2) was “inactive” and the growth inhibition call (S. aureus RN4220) was “inactive”.
`Cc1nnc(NS(=O)(=O)c2ccc(N)cc2)s1` was tested, and the cytotoxicity call (HSkMC) was “inactive”, the cytotoxicity call (HepG2) was “inactive” and the growth inhibition call (S. aureus RN4220) was “inactive”.
With `O=C(CCN1CCNCC1)N1CCCCC1` the cytotoxicity call (HSkMC) was “inactive”, the cytotoxicity call (HepG2) was “inactive” and the growth inhibition call (S. aureus RN4220) was “inactive”.
With `C[C@H]1COC(=O)[C@@H](NC(=O)OCC2c3ccccc3-c3ccccc32)CC/C=C/C[C@H](CC(=O)N(CCOC(=O)NCCCCCC(=O)NO)Cc2ccccc2)C(=O)N1` the cytotoxicity call (HSkMC) was “inactive”, the cytotoxicity call (HepG2) was “inactive” and the growth inhibition call (S. aureus RN4220) was “inactive”.
`CNC(=O)c1cccc(S(N)(=O)=O)c1` was tested, and the cytotoxicity call (HSkMC) was “inactive”, the cytotoxicity call (HepG2) was “inactive” and the growth inhibition call (S. aureus RN4220) was “inactive”.
With `C[C@@H]1CCCCO[C@@H](CN(C)S(=O)(=O)c2ccc(F)cc2)[C@H](C)CN([C@H](C)CO)C(=O)c2cc(NC(=O)NC3CCCCC3)ccc2O1` the cytotoxicity call (HSkMC) was “inactive”, the cytotoxicity call (HepG2) was “active” and the growth inhibition call (S. aureus RN4220) was “inactive”.
For `C[C@@H]1CCCCO[C@H](CN(C)C(=O)c2ccccc2)[C@H](C)CN([C@@H](C)CO)C(=O)c2cc(NC(=O)C3CCCCC3)ccc2O1`, the cytotoxicity call (HSkMC) was “inactive”, the cytotoxicity call (HepG2) was “inactive” and the growth inhibition call (S. aureus RN4220) was “inactive”.
For `Cc1ccc(S(=O)(=O)N(C)C[C@@H]2OCCCC[C@H](C)Oc3ccc(NC(=O)Nc4ccccc4)cc3C(=O)N([C@@H](C)CO)C[C@@H]2C)cc1`, the cytotoxicity call (HSkMC) was “inactive”, the cytotoxicity call (HepG2) was “inactive” and the growth inhibition call (S. aureus RN4220) was “inactive”.
`C[C@H]1CN([C@@H](C)CO)C(=O)c2ccccc2-c2ccccc2CO[C@@H]1CN(C)C(=O)Nc1cccc(C(F)(F)F)c1` was tested, and the cytotoxicity call (HSkMC) was “inactive”, the cytotoxicity call (HepG2) was “inactive” and the growth inhibition call (S. aureus RN4220) was “inactive”.
`CC(=O)N(C)C[C@@H]1Oc2ncc(C#CC(C)(C)O)cc2C(=O)N([C@@H](C)CO)C[C@H]1C` was tested, and the cytotoxicity call (HSkMC) was “inactive”, the cytotoxicity call (HepG2) was “inactive” and the growth inhibition call (S. aureus RN4220) was “inactive”.
For `C[C@H](O)C#Cc1cnc2c(c1)C(=O)N([C@@H](C)CO)C[C@H](C)[C@H](CN(C)C(=O)Nc1ccc(C(F)(F)F)cc1)O2`, the cytotoxicity call (HSkMC) was “inactive”, the cytotoxicity call (HepG2) was “inactive” and the growth inhibition call (S. aureus RN4220) was “inactive”.
In the case of `C[C@@H]1CCCCO[C@H](CN(C)C(=O)Nc2ccc(F)cc2)[C@H](C)CN([C@@H](C)CO)C(=O)c2cc(NC(=O)Nc3ccc(F)cc3)ccc2O1`, the cytotoxicity call (HSkMC) was “inactive”, the cytotoxicity call (HepG2) was “inactive” and the growth inhibition call (S. aureus RN4220) was “inactive”.
For `Cc1ccc(-c2ccc3c(c2)O[C@@H](CN(C)C(=O)CN(C)C)[C@H](C)CN([C@H](C)CO)S3(=O)=O)cc1`, the cytotoxicity call (HSkMC) was “inactive”, the cytotoxicity call (HepG2) was “inactive” and the growth inhibition call (S. aureus RN4220) was “inactive”.
`C[C@H]1CC/C=C\[C@H]2O[C@@]34C=CCN(c5ccc6ccccc6c5)C(=O)[C@H]3N(CCO)C(=O)[C@@H]4[C@@H]2C(=O)O1` was tested, and the cytotoxicity call (HSkMC) was “inactive”, the cytotoxicity call (HepG2) was “inactive” and the growth inhibition call (S. aureus RN4220) was “inactive”.
`C[C@H](CO)N1C[C@H](C)[C@H](CN(C)Cc2ccc(C(F)(F)F)cc2)OCCCC[C@H](C)Oc2ccc(NC(=O)Nc3ccc4c(c3)OCO4)cc2C1=O` was tested, and the cytotoxicity call (HSkMC) was “inactive”, the cytotoxicity call (HepG2) was “inactive” and the growth inhibition call (S. aureus RN4220) was “inactive”.
For `C[C@@H]1CCCCO[C@@H](CN(C)Cc2ccc(C(F)(F)F)cc2)[C@@H](C)CN([C@@H](C)CO)C(=O)c2cc(NC(=O)Nc3ccc(C(F)(F)F)cc3)ccc2O1`, the cytotoxicity call (HSkMC) was “active”, the cytotoxicity call (HepG2) was “inactive” and the growth inhibition call (S. aureus RN4220) was “inactive”.
`O=C1N[C@@H](Cc2c[nH]c3ccccc23)COC(=O)[C@H](Cc2ccc(F)cc2)CCC=CC[C@H]1CC(=O)N(CCO)Cc1ccccc1` was tested, and the cytotoxicity call (HSkMC) was “inactive”, the cytotoxicity call (HepG2) was “inactive” and the growth inhibition call (S. aureus RN4220) was “inactive”.
For `C[C@H]1CCCCO[C@@H](CN(C)C(=O)Nc2ccc(F)cc2)[C@@H](C)CN([C@@H](C)CO)C(=O)c2cc(NC(=O)Cc3ccccc3)ccc2O1`, the cytotoxicity call (HSkMC) was “inactive”, the cytotoxicity call (HepG2) was “inactive” and the growth inhibition call (S. aureus RN4220) was “inactive”.
In the case of `CN(C)C(=O)C[n+]1ccc(/C=N/O)cc1`, the cytotoxicity call (HSkMC) was “inactive”, the cytotoxicity call (HepG2) was “inactive” and the growth inhibition call (S. aureus RN4220) was “inactive”.
